Source: PubChem BioAssay (Tox21)
Values joined by “and” are separate entries in the source; they are usually repeats but may differ in a detail not shown here. Identical values can stand only once. Inconclusive means that the source gave no clear call. Such entries were picked first, then a sample of the others. A potency beside an inconclusive call is a rough fit, not a confirmed value. Some structures have more than one record in an assay (separate samples or runs), and their calls can disagree. Active and inactive are the calls of the source. Calls come from the whole dose curve; as a rule, active = well fitted curve in the direction sought with a large enough effect in the repeat runs; inconclusive = weak or mixed curves; inactive = no such curve, though single readings can be large; an effect the other way counts as inactive or inconclusive.

How the values were obtained:
[1] = A CellTox Green Cytotoxicity Assay to monitor cytotoxicity in HEK293 cells - 40 hour (AID 1224871); settings: CellTox Green fluorescence; series mostly up to 76.8 µM; note: nearly all actives have a fitted effect of over 45% in size
Procedure, shortened: (§1)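 Fluorescence from a DNA-binding dye excluded by viable cells was measured repeatedly in the same HEK293 wells (600 cells/well) during continuous compound exposure at 37 C. Each assay gives one read point: 0, 8, 16, 24, 32 or 40 h.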

[2] = A CellTox Green Cytotoxicity Assay to monitor cytotoxicity in HepG2 cells - 24 hour (AID 1224878); settings: CellTox Green fluorescence; series mostly up to 76.8 µM; note: nearly all actives have a fitted effect of over 45% in size; for Cytotoxicity: % is set by controls: 0 for no effect and ±100 for the full control effect
Procedure, shortened: (§2)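 Real-time cytotoxicity: fluorescence of a cell-impermeant cyanine dye binding DNA of dead HepG2 cells, measured repeatedly (0–40 h) during compound exposure at 37 C. Cells seeded 600/well with reagent, dosed after 5 h.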

[3] = qHTS RealTime-Glo MT Cell Viability Assay in HEK293 cells - 40 hour (AID 1224874); settings: RealTime-Glo luminescence; max response: stronger effect = lower value; note: nearly all actives have a fitted effect of over 50% in size
Procedure, shortened: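 Luminescence, which tracks viable cell number through reduction of the prosubstrate to a NanoLuc substrate, was read over continuous 37 C culture. Cells (600/well) were premixed with reagent and rested 5 h before 23 nL of compound in DMSO was pinned.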

[4] = A CellTox Green Cytotoxicity Assay to monitor cytotoxicity in HEK293 cells - 24 hour (AID 1224875); settings: CellTox Green fluorescence; series mostly up to 76.8 µM; note: nearly all actives have a fitted effect of over 45% in size
Procedure, shortened: as §1

[5] = A CellTox Green Cytotoxicity Assay to monitor cytotoxicity in HepG2 cells - 40 hour (AID 1224879); settings: CellTox Green fluorescence; series mostly up to 76.8 µM; note: nearly all actives have a fitted effect of over 40% in size
Procedure, shortened: as §2

[6] = A CellTox Green Cytotoxicity Assay to monitor cytotoxicity in HepG2 cells - 16 hour (AID 1224876); settings: CellTox Green fluorescence; series mostly up to 76.8 µM; note: nearly all actives have a fitted effect of over 45% in size
Procedure, shortened: as §2

[7] = qHTS RealTime-Glo MT Cell Viability Assay in HepG2 cells - 32 hour (AID 1224877); settings: RealTime-Glo luminescence; series mostly up to 76.8 µM; note: nearly all actives have a fitted effect of over 55% in size
Procedure, shortened: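 HepG2 suspension premixed with RealTime-Glo reagents is plated at 600 cells per well and left 5 h at 37 C/5% CO2. Compounds in DMSO then go in, and bioluminescence reflecting viable cell number is recorded over 40 h.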

[8] = qHTS RealTime-Glo MT Cell Viability Assay in HEK293 cells - 16 hour (AID 1224872); settings: RealTime-Glo luminescence; series mostly up to 76.8 µM; note: nearly all actives have a fitted effect of over 50% in size; for activity change, negative = cytotoxicity: top concentration of the series differs between compounds; % is set by controls: 0 for no effect and ±100 for the full control effect
Procedure, shortened: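 Reads taken at 0, 8, 16, 24, 32 and 40 h from the same wells. HEK293 cells (600/well) carried RealTime-Glo reagents from seeding, with compound added after a 5 h settle at 37 C.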
Potency is the fitted concentration of half-maximal effect; tags give direction and shape of the fitted curve.

CC(=O)OCC(=O)[C@@]1(O)[C@H](C)C[C@H]2[C@@H]3CCC4=CC(=O)C=C[C@]4(C)[C@@]3(F)[C@@H](O)C[C@@]21C
Potency [1]: inactive | Potency [2]: inactive

O=[N+]([O-])c1cc(Cl)c(Cl)c(Cl)c1Cl
Potency [1]: inconclusive: 54.8 µM [activator, single point] | Potency [3]: inconclusive: 38.8 µM [cytotoxic, partial curve, poor fit] | Potency [4]: inconclusive: 61.4 µM [activator, single point] | Potency [2]: inconclusive: 21.8 µM [activator, partial curve, poor fit] | Potency [5]: inconclusive: 19.4 µM [activator, partial curve]

O=Cc1ccccc1C=O
Potency [1]: inactive | Potency [3]: inconclusive: 30.9 µM [cytotoxic, partial curve] | Potency [6]: inconclusive: 38.9 µM [activator, partial curve, poor fit] | Potency [7]: inconclusive: 24.5 µM [cytotoxic, partial curve] | Potency [2]: active: 24.5 µM

CCC(C)c1ccccc1O (stereo not given)
Potency [1]: active: 34.4 µM and inconclusive: 49 µM [activator, single point] | Potency [7]: inactive | Potency [2]: inconclusive: 48.6 µM [activator, partial curve, poor fit] | Potency [5]: inconclusive: 54.9 µM [activator, single point]

O=C(COCCOCCOCC(=O)Nc1c(I)cc(I)c(C(=O)O)c1I)Nc1c(I)cc(I)c(C(=O)O)c1I
Potency [1]: inconclusive: 15.1 µM [activator, single point] | Potency [4]: inconclusive: 15.1 µM [activator, single point]

c1cc2c3c(c1)ccc1cccc(c13)C2
Potency [1]: active: 50 µM | Potency [4]: active: 56.1 µM

NC1=NCC2c3ccccc3Cc3ccccc3N12 (stereo not given)
Potency [1]: inactive | Potency [7]: inactive

CC(=O)C1(C)CC2=C(CCCC2(C)C)CC1C (stereo not given)
Potency [1]: inconclusive: 54.9 µM [activator, single point] | Potency [2]: inactive

NC(CO)(CO)CO
Potency [1]: inconclusive: 21.9 µM [activator, single point] | Potency [4]: inconclusive: 21.9 µM [activator, single point] | Potency [6]: inactive

CCOC(=O)C(C#N)=C(c1ccccc1)c1ccccc1
Potency [1]: inconclusive: 49 µM [activator, partial curve] | Potency [4]: inconclusive: 43.6 µM [activator, partial curve, poor fit]

O=C1c2ccccc2C(=O)c2cc(Cl)ccc21
activity change, negative = cytotoxicity [8]: inactive: 4.83% [at 6.97 µM]

O=C(O)c1ccccc1Nc1cccc(C(F)(F)F)c1
Potency [8]: inactive

CC(C)(C)C(=O)c1ccccc1
Potency [8]: inactive

O=c1n(CCCN2CCN(c3cccc(Cl)c3)CC2)nc2ccccn12
Potency [8]: active: 12.3 µM and active: 9.52 µM

N#CSc1ccc(N)c([N+](=O)[O-])c1
Potency [1]: inconclusive: 55.3 µM [activator, single point] | Potency [5]: inconclusive: 55.3 µM [activator, single point]

C[C@H]1[C@H](NC(=O)/C(=N/OC(C)(C)C(=O)O)c2csc(N)n2)C(=O)N1S(=O)(=O)O (stereo in doubt)
Potency [8]: inactive

O=C(O)Cc1ccc(-c2ccccc2)cc1
Potency [8]: inactive

CO[Si](OC)(OC)c1ccccc1
Potency [8]: inactive

CCCCCCCCCCCCCCCS(=O)(=O)Oc1ccccc1
Potency [8]: inconclusive: 23.9 µM [cytotoxic, partial curve]

Cc1c(-c2cccnc2)c2ccccc2n1CCCCC(=O)O
Potency [8]: inactive

Cc1ccc(S(=O)(=O)NC(=O)NC2CCCCC2)cc1
Potency [8]: inactive

CCc1ccc(C(=O)C(C)CN2CCCCC2)cc1 (stereo not given)
Potency [8]: inactive

CCOCCn1c(N2CCCN(C)CC2)nc2ccccc21
Potency [8]: inactive

C/C=C/C(=O)CCCC
Potency [8]: inactive

Cc1nc2n(c(=O)c1CCN1CCC(c3noc4cc(F)ccc34)CC1)CCCC2
Potency [8]: active: 3.01 µM

Cc1c(NC(C)C)c(=O)n(-c2ccccc2)n1C
Potency [8]: inactive

CC1(C)C(=O)N(Cl)C(=O)N1Br
Potency [8]: inconclusive: 61.6 µM [rising, single point]

CCCCCCCCCCCCO
Potency [1]: inconclusive: 22.1 µM [activator, full curve, poor fit] | Potency [5]: inconclusive: 24.8 µM [activator, single point]

O=S(=O)(O)c1ccccc1/C=C/c1ccc(-c2ccc(/C=C/c3ccccc3S(=O)(=O)O)cc2)cc1
Potency [8]: inactive
